In PubChem BioAssay (Tox21) one finds Potency and activity change, negative = cytotoxicity data, which are given here for 15 compounds.

Assay [1] is described as follows: qHTS assay to identify small molecule antagonists of the estrogen receptor alpha (ER-alpha) signaling pathway using the BG1 cell line - cell viability counter screen (AID 743081).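 Further: compound given together with 17beta-estradiol as the ER stimulus; potency means the concentration at half of the fitted maximal effect; nearly all actives have a fitted effect of over 45% in size.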 The following applies: BG1Luc4E2 viability, CellTiter-Fluor, 22 h.
Assay [2] is described as follows: qHTS assay to identify aromatase inhibitors - cell viability counter screen (AID 743084).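 Further: cells stimulated with testosterone during compound exposure; potency means the concentration at half of the fitted maximal effect; nearly all actives have a fitted effect of over 55% in size.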 The following applies: MCF-7 aro ERE viability, CellTiter-Fluor, 24 h.
Assay [3] in a line: qHTS assay to identify small molecule agonists of the NFkB signaling pathway - cell viability counter screen (AID 1159515; calls by dose curve; further: nearly all actives have a fitted effect of over 55% in size; further: potency means the concentration at half of the fitted maximal effect). The following applies: NFkB-bla ME-180 viability, CellTiter-Glo luminescence, 5 h; series mostly up to 61 µM. In a few lines:
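ME-180 NFkB-bla cells, 2,000/well; overnight attach; compound 5 hr, 37 C/5% CO2; LiveBLAzer substrate 1.5 hr RT; then CellTiter-Glo in same wells, 30 min RT, luminescence read.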

Assay [4] in a line: qHTS assay for small molecule activators of the heat shock response signaling pathway - cell viability counter screen (AID 743209). Further: potency means the concentration at half of the fitted maximal effect; nearly all actives have a fitted effect of over 50% in size. The following applies: HSE-bla HeLa viability, CellTiter-Glo luminescence, 5 h. In a few lines:
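HSE-bla HeLa; 1500 cells/well; overnight 37 C, 5% CO2; compound 5 h 37 C; LiveBLAzer B/G substrate 2.5 h RT; CellTiter-Glo 30 min RT; luminescence.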

Assay [5] is described as follows: qHTS assay to identify small molecule agonists of the peroxisome proliferator-activated receptor delta (PPARd) signaling pathway - cell viability counter screen (AID 743211). Further: potency means the concentration at half of the fitted maximal effect; nearly all actives have a fitted effect of over 55% in size. The following applies: PPARd-bla HEK293H viability, CellTiter-Glo luminescence, 17 h. In a few lines:
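qHTS cell viability: PPARd-bla HEK293H; 17 h cpd, 37C; CellTiter-Glo, luminescence at 30 min RT.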

A short description of assay [6]: qHTS assay to identify small molecule antagonists of the farnesoid-X-receptor (FXR) signaling pathway - cell viability counter screen (AID 743221; active means well fitted cell-killing curve with a large enough effect in the repeat runs, not every such curve was filed as active; further: on the % scale 0 is the no-effect control and ±100 the full control effect; nearly all actives have a fitted effect of over 50% in size). As to conditions: FXR-bla HEK293T viability, CellTiter-Glo luminescence, 16 h; at 81.1 µM (top of the series) unless noted. In short, it runs like this:
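After a 5 h settling period, FXR-bla HEK 293T cells receive compound and chenodeoxycholic acid (50 uM final) and incubate 16 h at 37 C; CellTiter-Glo luminescence, read after 30 min at room temperature, reports cell viability.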

The nature of assay [7]: qHTS assay to identify small molecule antagonists of the estrogen related receptor (ERR) signaling pathway from Tox21 library - cell viability counter screen (AID 1224834). Further: potency means the concentration at half of the fitted maximal effect; nearly all actives have a fitted effect of over 30% in size. As to conditions: ERR reporter cells viability, CellTiter-Fluor, 17.5 h. In a few lines: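 Multiplexed viability counter screen in ERR cells: 17.5 h compound exposure at 37 C, CellTiter-Fluor added, 30 min at 37 C/5% CO2, fluorescence read.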

Assay [8] in a line: qHTS assay to identify small molecule antagonists of the estrogen receptor alpha (ER-alpha) signaling pathway using the BG1 cell line in the presence of 0.1 nM 17-beta-estradiol - cell viability counter screen (AID 1259241). Further: nearly all actives have a fitted effect of over 40% in size. Further: potency means the concentration at half of the fitted maximal effect. On activity change, negative = cytotoxicity: on the % scale 0 is the no-effect control and ±100 the full control effect. The following applies: VM7Luc4E2 (BG1) viability, CellTiter-Fluor protease, 22 h, 0.1 nM estradiol agonist added; series mostly up to 92.4 µM. In short, it runs like this:
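Estradiol-stimulated (0.1 nM) VM7Luc4E2 cells exposed to compounds 22 hr; viability measured by fluorescence of cleaved CellTiter-Fluor substrate after 30 min.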

Assay [9] is described as follows: qHTS assay to identify small molecule agonists of the estrogen receptor alpha (ER-alpha) signaling pathway in the presence of an antagonist - cell viability counter screen (AID 1259386). Further: potency means the concentration at half of the fitted maximal effect; nearly all actives have a fitted effect of over 30% in size. As to conditions: VM7Luc4E2 viability, CellTiter-Fluor fluorescence, 22 h. In short, it runs like this: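 Read-out: CellTiter-Fluor fluorescence after 1hr reagent incubation, measured in the same wells as the luciferase readout. VM7Luc4E2 cells were exposed to 15 compound concentrations with 10.0nM ICI-182,780 for 22hr at 37C.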

The nature of assay [10]: qHTS assay to identify small molecule antagonists of the androgen receptor (AR) signaling pathway using the MDA cell line in the presence of 0.5 nM R1881 - cell viability counter screen (AID 1259242). Further: potency means the concentration at half of the fitted maximal effect; nearly all actives have a fitted effect of over 45% in size. As to conditions: MDA-kb2 viability, CellTiter-Fluor protease fluorescence, 16 h. In short, it runs like this: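 Live-cell protease fluorescence, CellTiter-Fluor, 30 min at 37C. Cells: MDA-kb2, 3,000/well, preincubated 5 hr. Compounds plus 0.5 nM R1881 final, 16 hr, 37C, 0% CO2.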

For assay [11], the target named is Androgen receptor (Homo sapiens) (UniProt P10275). Briefly: qHTS assay to identify small molecule antagonists of the androgen receptor (AR) signaling pathway using the MDA cell line in the presence of 0.5 nM R1881 (AID 1259243). Further: potency means the concentration at half of the fitted maximal effect; nearly all actives have a fitted effect of over 50% in size. The following applies: MDA-kb2 MMTV-luciferase, R1881 0.5 nM, 16 h. In short, it runs like this: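 MDA-kb2, MMTV-luc (AR/GR elements); 3,000 cells/well; cpd + 0.5 nM R1881 final; 16 hr 37C, 0% CO2; ONE-Glo 30 min RT; luminescence.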
Sequence of UniProt P10275 (P10275 whole entry, looked up): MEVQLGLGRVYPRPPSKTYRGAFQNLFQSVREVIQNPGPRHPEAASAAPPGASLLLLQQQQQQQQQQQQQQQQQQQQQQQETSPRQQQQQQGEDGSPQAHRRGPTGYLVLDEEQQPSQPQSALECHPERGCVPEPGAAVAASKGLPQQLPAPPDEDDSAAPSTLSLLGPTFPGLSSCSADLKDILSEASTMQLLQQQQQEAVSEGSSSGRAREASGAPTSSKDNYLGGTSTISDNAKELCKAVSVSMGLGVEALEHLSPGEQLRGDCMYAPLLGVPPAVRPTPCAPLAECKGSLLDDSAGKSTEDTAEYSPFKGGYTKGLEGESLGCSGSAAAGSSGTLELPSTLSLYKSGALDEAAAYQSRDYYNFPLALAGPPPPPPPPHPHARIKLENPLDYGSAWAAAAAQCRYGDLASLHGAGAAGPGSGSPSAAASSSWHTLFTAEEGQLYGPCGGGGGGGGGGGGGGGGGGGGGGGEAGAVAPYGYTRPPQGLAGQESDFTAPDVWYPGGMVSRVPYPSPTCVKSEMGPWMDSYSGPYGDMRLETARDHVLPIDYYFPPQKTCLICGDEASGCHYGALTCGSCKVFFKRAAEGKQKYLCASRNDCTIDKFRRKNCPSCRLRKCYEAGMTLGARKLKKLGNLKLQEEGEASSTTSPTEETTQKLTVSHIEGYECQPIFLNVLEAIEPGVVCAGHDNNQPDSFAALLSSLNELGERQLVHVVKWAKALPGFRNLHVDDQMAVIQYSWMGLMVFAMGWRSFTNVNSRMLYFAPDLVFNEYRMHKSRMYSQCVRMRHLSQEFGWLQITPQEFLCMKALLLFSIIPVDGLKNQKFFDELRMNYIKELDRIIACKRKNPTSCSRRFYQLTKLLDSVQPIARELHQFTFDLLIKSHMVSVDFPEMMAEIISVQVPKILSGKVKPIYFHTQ

Assay [12] can be described thus: qHTS assay to identify small molecule agonists of the androgen receptor (AR) signaling pathway in the presence of an antagonist - cell viability counter screen (AID 1259379). Further: potency means the concentration at half of the fitted maximal effect; nearly all actives have a fitted effect of over 25% in size. The following applies: MDA-kb2 viability, CellTiter-Fluor, 16 h. In a few lines:
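Viability counter screen: CellTiter-Fluor fluorescence, measured in the same wells as the luciferase read-out. MDA-kb2 cells, 3,000/well, with nilutamide at 3.0uM final and compounds at 15 concentrations, 16 hr at 37C, 0% CO2.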

Assay [13] is described as follows: qHTS assay to identify small molecule agonists of the estrogen receptor beta (ER-beta) signaling pathway - cell viability counter screen (AID 1259380). Further: potency means the concentration at half of the fitted maximal effect; nearly all actives have a fitted effect of over 30% in size. The following applies: ER-beta-bla HEK293T viability, CellTiter-Glo luminescence, 16 h. In short, it runs like this: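 Luminescence read-out (CellTiter-Glo, 30 min, room temp) taken in the same wells as the beta-lactamase reporter assay; ER-beta-UAS-bla HEK293T cells exposed to DMSO-dissolved compounds for 16 hr at 37C in 2% charcoal-stripped FBS medium.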

Where “and” joins values, the source holds several entries; their conditions need not be identical. Equal values may be shown once. For some assays here: Shown are results outside the selection of hits, which stands elsewhere. Records with an inconclusive call do not appear. Only a part is listed here, and it is no random draw. Some structures have more than one record in an assay (separate samples or runs), and their calls can disagree. Calls of active or inactive are those of the source. Unless noted, the call rests on the fitted dose curve; in most records, active means well fitted curve in the direction sought with a large enough effect in the repeat runs; inconclusive means weak or mixed curves; inactive means no such curve, though single readings can be large; an effect the other way counts as inactive or inconclusive.

As for `CCC[CH2][Sn]([CH2]CCC)([CH2]CCC)[CH2]CCC`, the Potency in [1] was active: 13.7 µM.

Turning to `CCCCCCCCCC(CC)c1ccc(S(=O)(=O)O)cc1` (configuration not stated), the Potency was active: 30.6 µM in assay [2]; “inactive and active: 15.5 µM” in assay [3].

Turning to `CCOP(=O)(O)OCC` (tested in a mixture with another compound), in assay [4], the Potency was active: 19.3 µM.

`C=CCC1=C(C)C(OC(=O)C2C(C=C(C)C)C2(C)C)CC1=O` (configuration not stated): the Potency in [5] is active: 23.2 µM.

Consider `COCCOCCO`, for which the activity change, negative = cytotoxicity in [6] is inactive: -4.94%.

On to `O=C(CCl)CCl`, for which the activity change, negative = cytotoxicity in assay [6] was inactive: -5.07% [at 62.6 µM].

Turning to `CC(C)(C)CC(C)(C)c1ccc(O)cc1`, the Potency in [7] is active: 54.5 µM.

Take `Oc1ccc(Cl)cc1Cc1ccccc1`: the Potency in assay [7] is active: 24.6 µM.

Regarding `O=[N+]([O-])c1cc([N+](=O)[O-])c2ccccc2c1`, the Potency entry in [8] was “inactive”.

On to `Oc1cc(Cl)ccc1Oc1ccc(Cl)cc1Cl`, for which the results for the Potency in [8] and in assay [9] were active: 62.6 µM and active: 31.4 µM, respectively.

Turning to `C=CCC1=C(C)[C@@H](OC(=O)[C@@H]2[C@@H](C=C(C)C)C2(C)C)CC1=O`, the Potency in [10] was active: 43.3 µM.

For the compound `CC(C)Oc1cc(-n2nc(C(C)(C)C)oc2=O)c(Cl)cc1Cl`, the Potency in [11] is active: 67.6 µM.

For the compound `Nc1ccc(N=Nc2ccccc2)cc1`, the Potency in [12] is active: 27.3 µM.

Take `O=S1OCC2C(CO1)C1(Cl)C(Cl)=C(Cl)C2(Cl)C1(Cl)Cl` (configuration not stated): the Potency in assay [13] was active: 61.2 µM.

As for `O=S(=O)(O)C(F)(F)C(F)(F)C(F)(F)C(F)(F)C(F)(F)C(F)(F)C(F)(F)C(F)(F)F`, the Potency in [13] is active: 15.4 µM.
